Some of the results follow.
system: PfSIP2 AP2 domain 1 (GST-tagged); experiment: gcPBM binding intensity (ln(normalized median fluorescence intensity)); higher = stronger DNA binding
How it was run: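 DNA-binding domains from P. falciparum, fused to GST and produced in E. coli, were put on an Agilent 4 × 180k double-stranded probe array for 1 h in 1× PBS holding 1% milk, 0.2 mg/ml BSA, 0.5% salmon testes DNA and 0.03% Triton X-100. Probes were primer-extended, 36 bp long and drawn from intergenic genomic regions, with negative controls included. After Alexa488 anti-GST antibody detection and a 488 nm scan, binding intensity was set as the highest Masliner-normalised natural-log median intensity across replicate spots of either probe orientation.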

Row | Sequence | gcPBM binding intensity (ln)
1 | TATGCAATAAAATATACACACAATATACTTATATAT [CACACA_site7691] | 6.99
2 | ATAAATATACCAATCGGTACACATTTATACAAACAA [XGTACX_site7484] | 6.98
3 | AATAAATACACATACACACACGACGCTAGTATATGT [CACACA_site6627] | 6.83
4 | AGAATAAATATGTGGTGTTATAGTATTAATGTTAAT [TGCATGCA_negctrl_site62] | 7
5 | GCTATAAATATAATCACACATAAATATATAATATAT [CACACA_site5144] | 7.13
6 | AGAAAAAAATAATCATCACACACGGAGAATGTCCAA [CACACA_site2314] | 6.59
7 | GAAAATAACTAAAATTGTACAAAGAAACATATATTT [XGTACX_site6484] | 6.83
8 | TATATATATCTGTATACACACATACAAATATGTAAA [CACACA_site5950] | 7.16
9 | GATATTCATTATATATGTACATATATGTAATATATA [XGTACX_site2210] | 7.05
10 | TATTAAAGCACCCATGCACACACACTAAGGAAAAGA [CACACA_site7961] | 9.28
11 | ATATATTTTTTTTTTTCACACATTAGGATTCATATA [CACACA_site5758] | 7.12
12 | TAATAATATATAAAAAGTACATAACAAGATATGAAA [XGTACX_site4921] | 7.19
13 | ATCATATGTATGGTGGTGCATTATGCATGAATTTTA [GTGCAC_site9798] | 10.2
14 | TATATAAACCCACCTACACACACAACGTAAATGCAT [CACACA_site8702] | 7.1
15 | ATTATTATATTCAAATGTACTTAATAAACATTTTAA [XGTACX_site3023] | 6.99
16 | TTTATCTAAATATGTGTGCACTCGTTAATTTTTTTT | 10.5
17 | TGTTGATTTATCCTGTGTACGGATATATATCTTTCA [XGTACX_site7826] | 6.88
18 | TAAAGAATATTATAAACACACACTTTATAAAGAATT [CACACA_site114] | 6.67
19 | GTAATTATACATATTACACACTCTCTTGATCTTTTT [CACACA_site7756] | 6.88
20 | TATATAAAGAAACACACACACACCTTATAATTATTA [CACACA_site4062] | 7.27
21 | AAAAAAAAAACACGCGCACACACACCCACCCACCCA [CACACA_site8689] | 7.81
22 | ACTAATAAAGGTGTAATACACACTATAAAAAGGAAT [CACACA_site1124] | 7.09
23 | TTTTTTCTTTATTATGGTACGTATAAAAAAATTATA [XGTACX_site3433] | 7.18

Row | Sequence | gcPBM binding intensity (ln)
24 | GAGAGGTATCAAAAATGTACACATATATATATGTAT [XGTACX_site5611] | 7.04
25 | ATATATAATATATATTGTACAGGTATGTCTATAAAT [XGTACX_site2243] | 7.14
26 | TATAAAATTTTTAAAAGTACATATTTTACATAATAC [XGTACX_site2193] | 7.07
27 | ATTATTCCATATTATTGTACTTTAATTTTTTAAACC [XGTACX_site2960] | 7.15
28 | TTTTTATCAACAAATAATACCATAACTCATATTTAT [CACACA_negctrl_site740] | 6.88
29 | AAAATGTTATTGGAAAGTACAAAAAAAATTATATAA [XGTACX_site4074] | 6.83
30 | TTAATATATATATATATATATATATTTTTATTTTTT [CACACA_negctrl_site763] | 7.57
31 | ATAAAACGTACAATGGTGCATATAAATAATATATAT [GTGCAC_site9960] | 10.8
32 | CATATATAGATATATACACACATATATAAATAAATA [CACACA_site6759] | 6.93
33 | TATGTATATTCTTTCAGTACACATAATGTTGTCATA [XGTACX_site8845] | 7.12
34 | TAAATATATTTATACACACACACCAAAGCAATAGAT [CACACA_site7393] | 7.33
35 | GGATTCAAAAAAAAAAATAAAAGTAAATAATAAATA [TGCATGCA_negctrl_site348] | 6.92
36 | TTCAATATACATATGTGTACTAAAATAAATAGAAAA [XGTACX_site5708] | 7.21
37 | ATTACAACATTTTATACACACGTGATTATTAATTTT [CACACA_site5581] | 7.21
38 | TATATTTCAGGGGGGAGTACAAATTTTTTTATATAA [XGTACX_site1600] | 9.68
39 | TTTATGAAGTAAAAATATAAATTCACAAAGTTAAAA [CACACA_negctrl_site1476] | 6.71
40 | AAGAACAGAACGTACACACACATATTTATATTTATA [CACACA_site7594] | 7.08
41 | ATTTGTAATATTAAATGTACAGGTAAGAAATATCAG [XGTACX_site1562] | 7.49
42 | TAAGGAAAAAAAATATGTACTTATAGTTCCTTCTTT [XGTACX_site2202] | 6.8
43 | CATTATGTACAAAAAGTGCAATATATATTAACACTG | 8.23
44 | TTATATATATATATATATATATATATATATATAAAT [GTGCAC_negctrl_site126] | 8.38
45 | AACAAAATAAGAAAACGTACAAATGTTTCAAATTCT [XGTACX_site1544] | 6.83
46 | TTTTCAAAGATATATACACACATGCATATTACGGTG [CACACA_site6505] | 7.01

Row | Sequence | gcPBM binding intensity (ln)
47 | TTTTTGAGTGCACATACACACAGACATACATTTAAA [CACACA_site5813] | 11.5
48 | TTAATAAATATCAATACACACACACTAATGTGAATA [CACACA_site9254] | 6.86
49 | TGTATGAAATATATTACACACATATATAATATATAT [CACACA_site793] | 7.27
50 | GTGTAAATAAGGATATATAACAATCAACAAAACATA [CACACA_negctrl_site1759] | 7.07
51 | ATATTTTTCAAACATCGTACATTATGAGTTAAAATT [XGTACX_site584] | 7.02
52 | ATACACAAAATTATTAAATCAATAAATATATGGTTT [CACACA_negctrl_site353] | 6.77
53 | TTATAAATGAATAAATGTACAAAATATATATATATA [XGTACX_site8829] | 9.08
54 | CATAACATAAAATAGGTGCACAAAAATTGTAATTGA | 11.2
55 | CACACCCACCAACACACACACACACCCACCCATATA [CACACA_site366] | 7.11
56 | TTGTAATATATGTATTGTACGCATATAACAATTATT [XGTACX_site3652] | 6.99
57 | TTCAGTGTATACATATGTACATATATATATATATAT [XGTACX_site1621] | 9.44
58 | ATTTTTATTTGTTACGCATGCATAAAAGTGCATACT [TGCATGCA_site547] | 8.56
59 | AAAATACATAAATGTTCACACATTAAAAAGCAGAAG [CACACA_site5346] | 7.13
60 | TTTATAAAGAAACACACACACATGTGAACATAAAAA [CACACA_site1908] | 6.93
61 | TATGTCAGATGAAAGGGTACATAATATAATATATTT [XGTACX_site8062] | 6.97
62 | TTTTTATTACATAATTAAAAAAAATAATAAAATAAA [XGTACX_negctrl_site249] | 6.8
63 | TTTTTTTTTTAATTCGCACACTGTCTTCATACAATT [CACACA_site1379] | 7.14
64 | ATATATATATATTTATGTACTTAATAATTTATTCAC [XGTACX_site7301] | 9.08
65 | TGCAGTCTGGAGAAAAGTACATAGTATCTGGTAACC [XGTACX_site2019] | 6.78
66 | ATATCATTAAAAGGATGTACATATGTGTATACAATA [XGTACX_site871] | 7.06
67 | TAATATCTAAAAAATATATTTTTTATTTTTTATTAA [CACACA_negctrl_site510] | 6.8
68 | TACATACATACATACACACACACATATATATACATA [CACACA_site853] | 8.01
69 | AATTTAAAATAATATTGTACTTAGATATAAATATGA [XGTACX_site4198] | 6.82

Row | Sequence | gcPBM binding intensity (ln)
70 | TAAAAAATATAAACTGCACACACAAAAAAAAAAGAG [CACACA_site8379] | 8.49
71 | ATGGTACACAAATATACATGCAATAATAAAAAAAAA [TGCATGCA_site879] | 7.23
72 | CATTAATATATATATACATGCACGTTTTAAAAAAAA [TGCATGCA_site875] | 8.15
73 | ATGGGAATATAATTATGTACATATAAAAATTATAAA [XGTACX_site5336] | 6.97
74 | TAATTATGCAGACACACACACACACGCAACTAAAAA [CACACA_site7253] | 7.37
75 | TCATTTCACGGACACACACACACAATATATTTCCTT [CACACA_site6023] | 7.37
76 | AAAAAATATTTTTACAGTACATATATATAAAATGTT [XGTACX_site3215] | 6.96
77 | TAACAAAGGAAAGATATACACACGTATGCATGATAA [CACACA_site2520] | 6.9
78 | TAAATAAGGAAGGAAACACACATTAAAAAATAAATA [CACACA_site618] | 6.74
79 | TTTTTAAATTATTTGAAAAAAAGAAAATTATAAACA [CACACA_negctrl_site1599] | 7.12
80 | AACAGAAGCACATACACACACTCAAAAAAAAAAAAA [CACACA_site5652] | 7.19
81 | ATTTTATTCTAAAAAGGTACACATATTATTTTATGA [XGTACX_site7233] | 7.01
82 | ATTAATATATATGGATGTACTTATGTATGTATGCAT [XGTACX_site2263] | 7.24
83 | ATAATAATATATATTACACACGCATCGTTCATTTAT [CACACA_site8752] | 7.06
84 | GGAAAAACCATTCGCACACACACATAATATATAATA [CACACA_site1424] | 7.31
85 | CATGTATAATATAATACACACTATATAATATACACC [CACACA_site5267] | 7.11
86 | TCTTACTAATATCGCACACACATATGTAGACGGGAT [CACACA_site87] | 7.1
87 | TATTTATATGGACACACACACATATAAATAAATAAA [CACACA_site6346] | 7.03
88 | ATGGCCATAATATAGACACACATATATAAATATATA [CACACA_site2230] | 6.91
89 | CGATATGTTCAATATTGTACTATTTATAATAATATG [XGTACX_site3051] | 6.9
